Reference: publication PMC5788634, “Cell surface expression of nucleolin mediates the antiangiogenic and antitumor activities of kallistatin” (Oncotarget, 2017)

Target: T1, Recombinant human kallistatin with a his-tag (human, UniProt P29622 21-427)
T1 construct: kallistatin, human, recombinant; The his-tag is named only for the Ni-NTA pull-down; also called his-tagged kallistatin; source: P. pastoris strain GS115, purified (Phenyl Superose and Heparin Sepharose FF chromatography)
T1 sequence (looked up): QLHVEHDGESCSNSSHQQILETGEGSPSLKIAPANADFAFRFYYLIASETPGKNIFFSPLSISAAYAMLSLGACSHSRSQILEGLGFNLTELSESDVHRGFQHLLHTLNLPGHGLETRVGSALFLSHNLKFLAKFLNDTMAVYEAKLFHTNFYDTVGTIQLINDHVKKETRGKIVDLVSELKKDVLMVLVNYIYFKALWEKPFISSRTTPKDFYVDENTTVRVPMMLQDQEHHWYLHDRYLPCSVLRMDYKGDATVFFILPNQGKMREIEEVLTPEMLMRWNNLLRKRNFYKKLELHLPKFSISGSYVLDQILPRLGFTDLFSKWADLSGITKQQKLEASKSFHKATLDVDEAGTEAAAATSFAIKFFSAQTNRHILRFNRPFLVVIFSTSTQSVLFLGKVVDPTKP
Experiment: SPR; real-time kinetic binding sensorgrams at the indicated concentrations; who was immobilised and the conditions not given

Kd: 20.4 nM
B1: nucleolin (as used for surface plasmon resonance) (natural protein)
chain: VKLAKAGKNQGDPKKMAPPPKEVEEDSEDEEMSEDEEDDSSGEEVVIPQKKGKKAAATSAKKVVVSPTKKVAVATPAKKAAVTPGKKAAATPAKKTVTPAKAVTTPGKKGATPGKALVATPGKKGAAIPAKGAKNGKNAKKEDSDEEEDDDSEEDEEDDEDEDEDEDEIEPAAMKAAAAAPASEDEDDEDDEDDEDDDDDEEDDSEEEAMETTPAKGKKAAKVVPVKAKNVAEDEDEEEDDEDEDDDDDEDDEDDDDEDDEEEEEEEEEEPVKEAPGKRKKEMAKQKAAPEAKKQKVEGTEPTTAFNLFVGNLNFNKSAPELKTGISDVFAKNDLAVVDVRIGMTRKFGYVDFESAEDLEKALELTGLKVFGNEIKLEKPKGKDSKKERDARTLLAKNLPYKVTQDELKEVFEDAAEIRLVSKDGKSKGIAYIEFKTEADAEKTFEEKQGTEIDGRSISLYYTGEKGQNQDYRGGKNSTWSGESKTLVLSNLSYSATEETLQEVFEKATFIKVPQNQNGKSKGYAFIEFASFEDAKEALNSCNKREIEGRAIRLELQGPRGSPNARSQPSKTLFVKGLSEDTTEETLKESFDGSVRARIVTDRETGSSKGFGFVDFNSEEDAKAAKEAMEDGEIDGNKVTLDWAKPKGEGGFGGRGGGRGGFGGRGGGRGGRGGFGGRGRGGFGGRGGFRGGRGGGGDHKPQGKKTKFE
